{"source": "the supplement of paper PMC3334620", "note": "Whole data set: some 33,000 sequences, median “E-score (-0.5 to 0.5)” near -0.04, cut for the highest 2% near 0.36. This is one part of the list.", "data": [{"biological_target": "T1, Hmlalpha2 (UniProt P0CY09)", "T1 sequence": "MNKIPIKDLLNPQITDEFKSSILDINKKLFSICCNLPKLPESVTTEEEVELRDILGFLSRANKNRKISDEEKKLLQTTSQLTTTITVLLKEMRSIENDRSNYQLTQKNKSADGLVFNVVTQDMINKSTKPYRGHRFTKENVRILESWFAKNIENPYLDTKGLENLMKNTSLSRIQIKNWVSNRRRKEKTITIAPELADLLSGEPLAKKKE", "assay": "PBM E-score (8-mer binding enrichment) (E-score (-0.5 to 0.5)); higher = stronger / more preferred TF binding; most listed sequences are background and not binding sites", "conditions": "protein concentration: 200 nM; construct: GST-full length", "how_it_was_run": "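The E-score, a modified Wilcoxon-Mann-Whitney statistic, was computed by the Universal PBM Analysis Suite for every ungapped eight-base word pooled with its reverse complement. Scans behind it were normalised with masliner after bound GST-tagged yeast transcription factors were detected with fluorescent anti-GST. The proteins, at about 100-200 nM, had been applied to universal all-10-mer Agilent arrays made double-stranded by primer extension.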", "values": [{"sequence": "CCTATCGA", "PBM E-score": 0.0464}, {"sequence": "ATAAGTAT", "PBM E-score": 0.0378}, {"sequence": "AGACTCAC", "PBM E-score": -0.186}, {"sequence": "CCGCTCCC", "PBM E-score": -0.362}, {"sequence": "CAGGTTAG", "PBM E-score": -0.131}, {"sequence": "CTTCGTTA", "PBM E-score": 0.0517}, {"sequence": "ATATCTAG", "PBM E-score": -0.162}, {"sequence": "AGGGTTTA", "PBM E-score": 0.235}, {"sequence": "TCTTTAAA", "PBM E-score": 0.0801}, {"sequence": "ATTGAGGG", "PBM E-score": -0.159}, {"sequence": "CAGCGCCA", "PBM E-score": -0.125}, {"sequence": "GTAGCGAA", "PBM E-score": -0.0184}, {"sequence": "CAATTATC", "PBM E-score": 0.0595}, {"sequence": "ATTCGCCG", "PBM E-score": -0.021}, {"sequence": "CGCGTAAG", "PBM E-score": 0.369}, {"sequence": "CGACACCA", "PBM E-score": -0.144}, {"sequence": "ACACCAGA", "PBM E-score": 0.14}, {"sequence": "CCAAGGGC", "PBM E-score": -0.285}, {"sequence": "AAACGTTA", "PBM E-score": 0.16}, {"sequence": "CGGAACCG", "PBM E-score": -0.137}, {"sequence": "CCTTCCCC", "PBM E-score": -0.228}, {"sequence": "CGTAACCA", "PBM E-score": 0.168}, {"sequence": "CGCATGTC", "PBM E-score": 0.274}, {"sequence": "GATACATA", "PBM E-score": 0.32}, {"sequence": "AATGGGAT", "PBM E-score": -0.192}, {"sequence": "CACGAGAG", "PBM E-score": -0.119}, {"sequence": "GACCTGAA", "PBM E-score": -0.176}, {"sequence": "TCAGCTAA", "PBM E-score": -0.0407}, {"sequence": "CTAATCTC", "PBM E-score": -0.119}, {"sequence": "AGAACAAA", "PBM E-score": 0.269}, {"sequence": "CGCGCGAG", "PBM E-score": -0.108}, {"sequence": "CAGCTAGC", "PBM E-score": -0.224}, {"sequence": "AAAGTGGG", "PBM E-score": -0.104}, {"sequence": "AATTATAT", "PBM E-score": 0.224}, {"sequence": "AATGGACT", "PBM E-score": -0.0807}, {"sequence": "CTGACTGA", "PBM E-score": -0.294}, {"sequence": "CGATCTCC", "PBM E-score": -0.206}, {"sequence": "TTTAGAAA", "PBM E-score": 0.196}, {"sequence": "CGGTTTAC", "PBM E-score": 0.231}, {"sequence": "GCTCTATA", "PBM E-score": -0.068}, {"sequence": "AGTCCTGA", "PBM E-score": -0.166}, {"sequence": "GTTAGTCA", "PBM E-score": 0.0805}, {"sequence": "ACTGCACC", "PBM E-score": -0.0877}, {"sequence": "CACGCAAG", "PBM E-score": 0.182}, {"sequence": "CGGGGACA", "PBM E-score": -0.183}, {"sequence": "ATGATGGG", "PBM E-score": -0.0766}, {"sequence": "AAACCCAT", "PBM E-score": 0.169}, {"sequence": "GTTTGCCA", "PBM E-score": -0.00173}, {"sequence": "ACGAGACG", "PBM E-score": -0.13}, {"sequence": "AACCGTGT", "PBM E-score": 0.334}, {"sequence": "AGTGCCGG", "PBM E-score": 0.00138}, {"sequence": "ATAGCAAG", "PBM E-score": 0.0707}, {"sequence": "AGCTTGAT", "PBM E-score": -0.00237}, {"sequence": "CACTAAGC", "PBM E-score": -0.161}, {"sequence": "GCGTCAAC", "PBM E-score": 0.179}, {"sequence": "CTTAAGAC", "PBM E-score": -0.0743}, {"sequence": "ATGCGCTA", "PBM E-score": -0.0733}, {"sequence": "CCGCGTAA", "PBM E-score": 0.426}, {"sequence": "CATTGAGC", "PBM E-score": -0.131}, {"sequence": "TAGTCAAA", "PBM E-score": 0.0135}, {"sequence": "TTACGGAA", "PBM E-score": 0.122}, {"sequence": "ACGGTCCT", "PBM E-score": -0.195}, {"sequence": "CGAAGAGC", "PBM E-score": -0.12}, {"sequence": "CGATCTTA", "PBM E-score": 0.0474}, {"sequence": "CAACTCAA", "PBM E-score": 0.193}, {"sequence": "AACGATAT", "PBM E-score": 0.162}, {"sequence": "CGTAAAAG", "PBM E-score": 0.293}, {"sequence": "CGATGCGC", "PBM E-score": -0.0492}, {"sequence": "CTGAGGCA", "PBM E-score": -0.168}, {"sequence": "AAAATCGA", "PBM E-score": -0.034}, {"sequence": "GCGTCTGA", "PBM E-score": -0.103}, {"sequence": "AAAATCCG", "PBM E-score": -0.0373}, {"sequence": "ATACTATA", "PBM E-score": 0.00481}, {"sequence": "CGGATTCC", "PBM E-score": -0.137}, {"sequence": "AGGTAACC", "PBM E-score": -0.0205}, {"sequence": "ACACCAAA", "PBM E-score": 0.21}, {"sequence": "GCACGTGC", "PBM E-score": 0.153}, {"sequence": "GCTGGAAC", "PBM E-score": -0.179}, {"sequence": "CGTCACGC", "PBM E-score": 0.0476}, {"sequence": "AAAACAAA", "PBM E-score": 0.272}, {"sequence": "AATAGTTG", "PBM E-score": 0.123}, {"sequence": "GCATTTAC", "PBM E-score": 0.351}, {"sequence": "CCCGATCC", "PBM E-score": -0.181}, {"sequence": "CAGAGGTC", "PBM E-score": -0.231}, {"sequence": "CTGATTCC", "PBM E-score": -0.264}, {"sequence": "GAGGGCGA", "PBM E-score": -0.347}, {"sequence": "AAGCACGA", "PBM E-score": 0.121}, {"sequence": "CACGCCAC", "PBM E-score": 0.00859}, {"sequence": "AGCCCACC", "PBM E-score": -0.319}, {"sequence": "GGGAAAAA", "PBM E-score": -0.0815}, {"sequence": "ACATTGAT", "PBM E-score": 0.249}, {"sequence": "AGTTGCCC", "PBM E-score": -0.0979}, {"sequence": "AAGGCAAG", "PBM E-score": -0.22}, {"sequence": "AGGAAGTC", "PBM E-score": -0.212}, {"sequence": "AAGTCAGT", "PBM E-score": -0.101}, {"sequence": "AGTAGATA", "PBM E-score": 0.156}, {"sequence": "GCCCGACC", "PBM E-score": -0.407}, {"sequence": "CGCGCCTC", "PBM E-score": -0.0944}, {"sequence": "AGTAATGA", "PBM E-score": 0.149}, {"sequence": "CGAGGAGA", "PBM E-score": -0.261}, {"sequence": "ATCTGTGC", "PBM E-score": 0.0427}, {"sequence": "ACAGCGCG", "PBM E-score": 0.219}, {"sequence": "GATCATGC", "PBM E-score": -0.247}, {"sequence": "ACCTCGAC", "PBM E-score": 0.0391}, {"sequence": "CTAGGGTA", "PBM E-score": -0.14}, {"sequence": "GTTCCAAA", "PBM E-score": 0.0714}, {"sequence": "AGGACACC", "PBM E-score": -0.207}, {"sequence": "ATTCTATC", "PBM E-score": 0.0639}, {"sequence": "AATCGGTG", "PBM E-score": 0.00491}, {"sequence": "AATAGCAG", "PBM E-score": -0.137}]}]}
